Measured values reported in PubChem BioAssay AID624418 (National Center for Advancing Translational Sciences (NCATS), 2012).
About 530 (0.13%) of roughly 410,000 compounds were called active. Inconclusive results, whose numbers are uncertain, are shown with a selection of clear calls. Calls follow the shape of the dose curve; as a rule, active = well fitted inhibition curve with a large enough effect; inconclusive = small, poorly fitted or top-dose-only effect, or another doubt; inactive = no such curve, though single readings can be large or run the other way. A potency beside an inconclusive call is a rough fit, not a confirmed value.

Assay: qHTS of GLP-1 Receptor Inverse Agonists: Cytotox Screen
Conditions: HEK293 cAMP-luciferase reporter cells, luminescence, 24 h; series mostly up to 38.3 µM
Description: The overall goal of this project was to develop a novel assay for discovering small molecule ligands for class B1 G protein-coupled receptors (GPCRs). Very few agonists (or inverse agonists) with generally weak activity for this entire group of physiologically important receptors are known to date. To establish proof-of-principle that this critical bottleneck can be overcome with a suitable screening approach, our studies focused on the class B1 receptor for glucagon-like peptide-1 (GLP-1R), a potential therapeutic target for diabetes and neurodegenerative disease.
The assay was developed using a cell-based functional readout. Toward this goal, stably transfected HEK293 cell clones were established that co-express (i) a cAMP-responsive luciferase reporter gene, and (ii) constitutively active GLP-1R that upon ligand interaction inhibit (inverse agonists) the luciferase activity. In addition, two control cell lines were developed: (i) one that express only the cAMP-responsive reporter gene to enable initial exclusion of GLP-1R independent effects of candidate probes; and (ii) one with the reported gene cloned with another constitutively active orphan receptor GPR119 to enable exclusion of GLP-1R independent inhibitor effects of candidate inverse agonists.
To that end, this assay was optimized for 1536-well format and screened against the MLSMR. Then the same collection was run in this cytotoxicity assay where inhibition was the undesired outcome.
NIH Molecular Libraries Probe Production Network [MLPCN]
NIH Chemical Genomics Center [NCGC]
PI Name: Martin Beinborn, Tufts Medical Center
Six ul of cell suspension (200 cells/uL in DMEM + 10% Nu serum + 1% pen-strep) is dispensed in a white solid 1536-well plate. The plates are incubated for 12 hours at 37 deg C at 5% CO2 followed by addition of 23 nL compounds. After 24 hr incubation at 37 deg C and 5% CO2, 3 uL of luciferase assay detection reagent is added. A luminescence read is obtained on the PerkinElmer Viewlux after 12 min incubation at room temperature.
Potency is read from the fitted curve at half-maximal effect.

| SMILES | Potency |
| --- | --- |
| Cc1ccc(-n2c(-c3ccccc3)n[nH]c2=S)c(C)c1 | active: 10 µM |
| Cc1cccc(NC(=S)NC(=O)Cc2ccccc2)c1C | inconclusive: 14.1 µM [inhibitor, single point] |
| COc1cccc(/C=N/NC(=O)c2[nH]nc3c2CCc2ccccc2-3)c1 | inconclusive: 1.78 µM [inhibitor, full curve, poor fit] |
| C/C(=N\NC(=O)COc1ccc(C)cc1C(C)C)c1ccc(-n2ccnc2)cc1 | inconclusive: 28.2 µM [inhibitor, single point] |
| COc1ccc(-c2nn(-c3ccccc3)cc2/C=C2/SC(=S)N(CCCC(=O)O)C2=O)c(C)c1 | inconclusive: 10 µM [inhibitor, single point] |
| COc1cccc(/C=C/c2ccc3cccc(O)c3n2)c1OC | inconclusive: 28.2 µM [inhibitor, single point] |
| CCc1nc2ccc(C(=O)NCCc3c[nH]c4ccccc34)cn2c1N(C=O)CCC(C)C | inconclusive: 2.82 µM [inhibitor, partial curve, poor fit] |
| O=C(O)/C=C/c1cn(Cc2ccccc2)nc1-c1ccccc1 | inactive |
| CCOc1cc(NC(=O)CCl)c(OCC)cc1NC(C)=O | inconclusive: 31.6 µM [inhibitor, single point] |
| Cc1cc(=O)oc2cc(OC(=O)c3nn(C(C)C)c(=O)c4ccccc34)ccc12 | inactive |
| COc1ccc(C(=O)NC(=S)N2CCN(c3ccccc3O)CC2)cc1 | inconclusive: 11.2 µM [inhibitor, partial curve, poor fit] |
| Cc1ccccc1NC(=O)c1sc2nc(N3CCOCC3)c3c(c2c1N)CCCC3 | inactive |
| O=C(NN1C(=O)/C(=C/C=C/c2ccccc2)SC1=S)c1ccncc1 | inconclusive: 11.2 µM [inhibitor, partial curve, poor fit] |
| CC(=O)NC1=C(N(C)C2CCS(=O)(=O)C2)C(=O)c2ccccc2C1=O (stereo unspecified) | inconclusive: 28.2 µM [inhibitor, single point] |
| CC(C)CSC1=NSC2=NC(=O)/C(=C\c3cccs3)C(=N)N12 | inconclusive: 28.2 µM [inhibitor, single point] |
| CCOCCCn1c(SCC(=O)NCCCOC)nc2c(sc3ccccc32)c1=O | inactive |
| NC(=O)[C@@H]1CCCNc2c(F)cc([N+](=O)[O-])cc2C(=O)N[C@@H](CO)C(=O)N[C@@H](Cc2ccc(O)cc2)C(=O)N1 | inconclusive: 31.6 µM [inhibitor, single point] |
| O=C(CN1CCCCC1)NCCNc1ccc(C(F)(F)F)cc1[N+](=O)[O-] | inconclusive: 12.6 µM [inhibitor, single point] |
| CCCCNC(=NCc1cccc(C(F)(F)F)c1)Nc1ccccc1 | inconclusive: 31.6 µM [inhibitor, single point] |
| CCO[C@H]1OC(C(=O)O)=C[C@@H](c2cn(C(C)=O)c3ccccc23)[C@@H]1CCCO | inactive |
| COc1ccc(Oc2nnc(-c3ccc(C)cc3)c3ccccc23)cc1 | inactive |
| Cc1ccc(Oc2nc(-c3ccccn3)nc3ccccc23)cc1 | inconclusive: 2 µM [inhibitor, partial curve, poor fit] |

| SMILES | Potency |
| --- | --- |
| O=C(CCCn1c(=S)[nH]c2ccccc2c1=O)NCCSCc1ccccc1 | inconclusive: 28.2 µM [inhibitor, single point] |
| CN(C)CCNc1ncnc2c1ncn2[C@H]1CN(Cc2ccc(-c3ccccc3)cc2)C[C@@H](CO)O1 | inconclusive: 12.6 µM [inhibitor, single point] |
| CCN1/C(=C/c2ccc3cccc(C)c3[n+]2CC)Sc2ccccc21 | inconclusive: 10 µM [inhibitor, partial curve, poor fit] |
| CCCCCCNC(=O)c1cn(CC)c2cc(N3CCN(C)CC3)c(F)cc2c1=O | inconclusive: 28.2 µM [inhibitor, single point] |
| CCCc1cc(Nc2ccccc2OCC)n2ncnc2n1 | inactive |
| Cc1ccccc1CNC(=O)Cc1ccccc1[N+](=O)[O-] | inactive |
| O=[N+]([O-])c1ccc(N2CCN(C(=S)Nc3ccc(F)cc3F)CC2)cc1 | inconclusive: 11.2 µM [inhibitor, single point] |
| C[C@@H]1CN([C@H](C)CO)S(=O)(=O)c2ccc(Br)cc2O[C@@H]1CN(C)C(=O)Nc1ccc(C(F)(F)F)cc1 | inconclusive: 28.2 µM [inhibitor, single point] |
| Cc1ccc(CN2CC(C(=O)Nc3ccc(C)c(S(=O)(=O)N4CCCCC4)c3)CC2=O)cc1 (stereo unspecified) | inactive |
| O=C(Nc1ccc(OC(F)F)cc1)Nc1cccc(C(F)(F)F)c1 | inconclusive: 28.2 µM [inhibitor, single point] |
| S=C(NC1CCCCC1)N(CCc1nc2ccccc2[nH]1)C1CCCC1 | inconclusive: 28.2 µM [inhibitor, single point] |
| COc1ccc(CN2CCN(Cc3nc4ccccc4s3)CC2CCO)c(C)c1C (stereo unspecified) | inconclusive: 20 µM [inhibitor, partial curve, poor fit] |
| Cc1c(Cl)cccc1NC(CC(=O)c1ccccc1)C(=O)O (stereo unspecified) | inactive |
| COc1ccccc1N1CCN(C2CCN(C(=O)c3cccs3)CC2)CC1 | inactive |
| COc1cccc2c1C(=O)c1c(O)c3c(c(O)c1C2=O)C[C@@](O)(C(=O)CO)C[C@@H]3OC1CC(N)C(O)C(C)O1 (stereo partly specified) | inconclusive: 3.55 µM [inhibitor, partial curve] |
| COc1ccc2c(c1)CCc1c(C(=O)NCCc3ccc(OC)c(OC)c3)noc1-2 | inactive |
| CCOC(=O)/C(C#N)=C/C=C1/C=CC=CN1C | inconclusive: 12.6 µM [inhibitor, partial curve, poor fit] |
| CCOC(=O)C1=C(CS(=O)(=O)c2ccc(Br)cc2)NC(=O)NC1c1ccccc1 (stereo unspecified) | inactive |
| CC(=O)Nc1ccc(C(=O)N/N=C/c2ccccc2OCc2ccccc2)cc1 | inconclusive: 20 µM [inhibitor, single point] |
| Cc1cc(C(=O)Nc2ccc(Cl)cc2)c(C)n1Cc1cccs1 | inconclusive: 10 µM [inhibitor, single point] |
| COc1ccccc1CNC(=O)C1(c2ccc(Cl)cc2)CC1 | inconclusive: 28.2 µM [inhibitor, single point] |
| O=C(NN=C1c2ccccc2-c2ccccc21)c1ccccc1 | inconclusive: 28.2 µM [inhibitor, single point] |

| SMILES | Potency |
| --- | --- |
| Cc1ccc(CNC(=O)c2ccc(CSCc3ccc(Cl)cc3)o2)cc1 | inactive |
| CCOc1cc(Br)cc(/C=C2\SC(=Nc3ccccc3)NC2=O)c1O | inconclusive: 31.6 µM [inhibitor, single point] |
| Cc1cccc(N2CCN(S(=O)(=O)c3c(C)[nH]c(C)c3C(=O)N3CCCC3)CC2)c1C | inactive |
| COc1cc(/C=C(\C#N)c2nc3ccc(C)cc3[nH]2)cc([N+](=O)[O-])c1O | inconclusive: 12.6 µM [inhibitor, partial curve, poor fit] |
| CCc1nc(CN2CCCC(C(=O)c3ccc4c5c(cccc35)CC4)C2)c(C)[nH]1 (stereo unspecified) | inconclusive: 28.2 µM [inhibitor, single point] |
| CCCc1ccc(-c2c(C)sc(NC(=O)c3ccnn3C)c2C#N)cc1 | inconclusive: 28.2 µM [inhibitor, single point] |
| O=C(NN=C(Cc1ccccc1)Cc1ccccc1)c1ccccc1O | inactive |
| COc1ccc(-c2nc(Cn3c(SCc4ccc(F)cc4)nc4ccncc43)c(C)o2)cc1OC | inconclusive: 20 µM [inhibitor, single point] |
| Cc1cccc(NC(=O)C2SC(=Nc3c(C)cccc3C)C(C(=O)N3CCOCC3)=C2N)c1 (stereo unspecified) | inconclusive: 12.6 µM [inhibitor, single point] |
| Oc1[nH]c(=S)sc1C=C1N=c2ccccc2=N1 | inconclusive: 7.94 µM [inhibitor, partial curve, poor fit] |
| O=C(/C=C/C(Cl)(Cl)Cl)Nc1ccc(Cl)cc1 | inconclusive: 11.2 µM [inhibitor, partial curve, poor fit] |
| Cc1ccc2nc(N/N=C/c3ccco3)cc(C)c2c1 | inconclusive: 28.2 µM [inhibitor, single point] |
| Cc1ccc(N2CCN(C(=O)N3CCCC3)CC2)cc1C | inactive |
| CCc1nc2ccc(C(=O)Nc3cccc(OCC(=O)N(C)C)c3)cn2c1N(C)Cc1ccc(N(C)C)cc1 | inactive |
| Cc1ccc(C(=O)N2CCC(c3c[nH]c4ccccc34)(c3c[nH]c4ccccc34)CC2)cc1 | inactive |
| CC(=O)Nc1ccc(SC[C@H](Cc2ccccc2)N2CC[C@@H](C(C)(C)C)CCC2=O)cc1 | inconclusive: 8.91 µM [inhibitor, partial curve, poor fit] |
| COc1ccccc1Nc1cc(C(=O)NCCCN(C)c2ccccc2)c2ccccc2n1 | inactive |
| CCN(CC)CCN(Cc1cc2cc3c(cc2[nH]c1=O)OCCO3)C(=O)NC1CCCCC1 | inconclusive: 28.2 µM [inhibitor, single point] |
| CCNc1nc(CN2CCCCC2)nc2scc(-c3ccccc3)c12 | inconclusive: 12.6 µM [inhibitor, partial curve] |
| CCCCN(CC)CCNC(=O)c1cc2c(-c3ccc(Cl)cc3)nn(C)c2s1 | inconclusive: 11.2 µM [inhibitor, single point] |
| O=C(Nc1ccc(Cl)cc1)Nc1ccon1 | inconclusive: 12.6 µM [inhibitor, partial curve] |
| O=C(NC(=S)NNS(=O)(=O)c1ccccc1)c1ccc([N+](=O)[O-])cc1 | inactive |
